# Source: the supplement of paper PMC8183993
# Counter-ions that a name gives are not always drawn. ± gives the standard deviation of the averaged measurements. Whole data set: some 3,100 compounds, median “mean cytoplasmic OPP incorporation (global translation) relative to DMSO” near 100, cut for the lowest 2% near 56. The list shows a part of the results.
# Test system: U2OS
# Assay: mean cytoplasmic OPP incorporation (global translation) relative to DMSO (% of DMSO); higher = more protein synthesis
# Settings: 10 µM; 24 h
# Procedure: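 Primary image-based screen in U2OS cells: compounds at 10 uM for 24 h, then a 1 h o-propargyl-puromycin (OPP) pulse, click labelling, and high-throughput microscopy. Mean cytoplasmic OPP intensity and nuclei count were normalised to DMSO wells within each plate (DMSO = 100) and averaged over triplicate plates.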
row,SMILES,mean cytoplasmic OPP incorporation
1,COc1ccc(CCN(C)CCCOc2ccc(S(=O)(=O)c3c(C(C)C)c4ccccc4n3C)cc2)cc1OC,110
2,CCCCCCN(CCCCCC)C(=O)Cc1c(-c2ccc(Cl)cc2)[nH]c2ccc(Cl)cc12,104
3,O=C1c2cccc3c2[C@H](CCC3)CN1[C@@H]1CN2CCC1CC2 [Palonosetron HCl],95.7
4,C/C(=N\NC(=O)C1C(=O)NCC1c1ccccc1)c1cccc(Br)c1 (stereo not drawn),102
5,NCCCCCCCCCCNS(=O)(=O)c1cccc2c(Cl)cccc12 [A-7 hydrochloride],115
6,"Cn1cnc([N+](=O)[O-])c1Sc1ncnc2[nH]cnc12 [Azathioprine (Azasan, Imuran)]",97.5
7,Cn1cnc([N+](=O)[O-])c1Sc1ncnc2[nH]cnc12 [Azathioprine],87.2
8,CC(=O)Oc1cc2c(s1)CCN(C(C(=O)C1CC1)c1ccccc1F)C2 (stereo not drawn) [Prasugrel (Effient)],103
9,CC(C)C(=O)Nc1ccc([N+](=O)[O-])c(C(F)(F)F)c1 [Flutamide],80.2
10,CCC(=O)NC1CCc2cccc(OC)c2C1 (stereo not drawn),101
11,OCCN1C[C@H](O)[C@@H](O)[C@H](O)[C@H]1CO [Miglitol (Glyset)],101
12,OCCN1C[C@H](O)[C@@H](O)[C@H](O)[C@H]1CO [Miglitol],96.6
13,Cc1c(CCOc2ccc(C(=O)O)cc2)c2cc(Cl)ccc2n1C(c1ccccc1)c1ccccc1,105
14,S=C(NCc1ccc2c(c1)OCO2)N1CCN(c2ncnc3c2oc2ccccc23)CC1 [Amuvatinib (MP-470)],115
15,N[C@@H](Cc1cc(-c2ccc(Cl)cc2Cl)cc(CP(=O)(O)O)c1O)C(=O)O,94.9
16,CC1(C)CCC2=C(O1)c1ccccc1C(=O)C2=O,110
17,CC(=O)OCC[N+](C)(C)C [Acetylcholine chloride],119
18,COC(=O)C1=C(C)NC(C)=C(C(=O)OC(C)C)C1c1cccc2nonc12 (stereo not drawn) [Isradipine],105 ± 7.9
19,O=C1OC(OC(=O)c2cccnc2Nc2cccc(C(F)(F)F)c2)c2ccccc21 (stereo not drawn) [Talniflumate],95.8
20,Cn1c(Nc2ccc(C(F)(F)F)cc2)nc2cc(Oc3ccnc(-c4ncc(C(F)(F)F)[nH]4)c3)ccc21,94.5
21,COc1cc(OC)c(C(=O)CCCCN2CCC3(CC2)NC(=O)NC3=O)cc1NS(=O)(=O)c1ccc(C(F)(F)F)cc1,129
22,C[C@H](CCC(=O)O)[C@H]1CC[C@H]2[C@@H]3CC[C@@H]4C[C@H](O)CC[C@]4(C)[C@H]3CC[C@]12C [Lithocholic acid],97.6 ± 4.3
23,N[C@@H](CSCCCO)C(=O)O [Fudosteine],96.9
24,CC(=O)SCC(Cc1ccccc1)C(=O)NCC(=O)OCc1ccccc1 (stereo not drawn) [Racecadotril],112
25,O=C(/C=C/N1C[C@H]2C[C@@H]1CN2c1ccccn1)c1ccccc1O,113
26,CC1COc2c(N3CCN(C)CC3)c(F)cc3c(=O)c(C(=O)O)cn1c23 (stereo not drawn) [Ofloxacin],96.3
27,O=C(O)CCCC[C@@H]1SC[C@@H]2NC(=O)N[C@@H]21 [Biotin (Vitamin B7)],103

row,SMILES,mean cytoplasmic OPP incorporation
1,O=C(O)CCCC[C@@H]1SC[C@@H]2NC(=O)N[C@@H]21 [Biotin],104
2,COCC(=O)Nc1c(I)c(C(=O)NCC(O)CO)c(I)c(C(=O)N(C)CC(O)CO)c1I (stereo not drawn) [Iopromide],100
3,"C[C@@]1(O)CCOC(=O)C1 [Mevalonic-D, L acid lactone]",99.4
4,CCOC(=O)Nc1ccc(NCc2ccc(F)cc2)nc1N [Flupirtine maleate],114
5,CC(C)Cc1ccc(C(C)C(=O)O)cc1 (stereo not drawn) [Ibuprofen Lysine (NeoProfen)],98
6,CN(C(=O)c1c(O)c2ccccc2n(C)c1=O)c1ccccc1 [Linomide],97.1
7,Nc1nc2[nH]cc(CCc3ccc(C(=O)N[C@@H](CCC(=O)O)C(=O)O)cc3)c2c(=O)[nH]1 [Pemetrexed (Alimta)],91.5
8,CCN1CCN(Cc2ccc(Nc3ncc(F)c(-c4cc(F)c5nc(C)n(C(C)C)c5c4)n3)nc2)CC1,70.5
9,COc1ccc(C(=O)c2ccccc2O)c(O)c1 [Dioxybenzone],102
10,CC(C)(C)NC[C@H](O)COc1ccccc1C1CCCC1 [Penbutolol sulfate],102
11,COc1ccc2cccc(N3CCN(CCNC(=O)c4ccc(F)cc4)CC3)c2c1,107
12,O=C(O)[C@H]1/C(=C/CO)O[C@@H]2CC(=O)N21 [Clavulanate potassium salt],106
13,O=C(OCCOCCO)c1ccccc1Nc1cccc(C(F)(F)F)c1 [Etofenamate],103
14,O=C(O)C1(C(=O)O)CCC1.[NH2-].[NH2-].[Pt+2] [Carboplatin],104
15,COc1ccc(CC(=O)NC(/N=C(\NC#N)Nc2cccc3ncccc23)C(C)(C)C)cc1OC (stereo not drawn),115
16,O=c1c(O)c(-c2ccc(O)c(O)c2)oc2cc(O)cc(O)c12 [Quercetin],104 ± 9.1
17,O=c1c(O)c(-c2ccc(O)c(O)c2)oc2cc(O)cc(O)c12 [Quercetin (Sophoretin)],102
18,O=C(Nc1ccc([N+](=O)[O-])cc1O)Nc1ccccc1Br,95.7
19,Cc1cnc(C(=O)O)c[n+]1[O-] [Acipimox],102
20,c1ccc(-c2n[nH]c3c2oc2ccccc23)cc1,87.3
21,CC/C(=C(\c1ccccc1)c1ccc(OCCN(C)C)cc1)c1ccccc1 [Tamoxifen],123
22,CC/C(=C(\c1ccccc1)c1ccc(OCCN(C)C)cc1)c1ccccc1 [Tamoxifen citrate],118 ± 4.6
23,CCc1oc2ccccc2c1C(=O)c1cc(Br)c(O)c(Br)c1 [Benzbromarone],97.4
24,c1ccc2oc(C3=NCCN3)cc2c1 [2-BFI hydrochloride],97.6
25,NCc1ccc(S(N)(=O)=O)cc1 [Mafenide hydrochloride],102
26,CN[C@@H]1[C@H](O[C@H]2[C@H](O[C@H]3[C@H](O)[C@@H](O)[C@H](NC(=N)N)[C@@H](O)[C@@H]3NC(=N)N)O[C@@H](C)[C@]2(O)CO)O[C@@H](CO)[C@H](O)[C@H]1O [Dihydrostreptomycin sulfate],99.7
